Laboratory results taken from PubChem BioAssay AID902 (National Center for Advancing Translational Sciences (NCATS), 2007).
In all, about 130,000 compounds went through this assay and about 1,900 (1.5%) were called active. The inconclusive results got no clear call from the source; some entries with a clear call stand among them for comparison. The call rests on the fitted dose curve; in most records, active means well fitted cell-killing curve with a large enough effect; inconclusive means small, poorly fitted or top-dose-only effect; inactive means no such curve, though single readings can be large or run the other way. Potencies beside an inconclusive call are fits to weak or partial responses and may not hold up.
On the % scale 0 is the no-effect control and ±100 the full control effect; potency means the concentration at half of the fitted maximal effect; tags describe the fitted curve by direction and shape.

Experiment: qHTS Screen for Compounds that Selectively Target Cancer Cells with p53 Mutations: Cytotoxicity of p53ts Cells at the Nonpermissive Temperature; further: nearly all actives have a fitted effect of over 55% in size
Details: H1299-p53A138V viability at 39C, ATP luminescence, 24 h; activity change, negative = cell killing: at 46.1 µM (top of the series)
In the case of `Cc1ccc(C2C(=O)N(C3CCC(C)CC3)CC(=O)N2C2CCCC2)cc1` (configuration not stated), the Potency is reported as inconclusive: 7.94 µM [cytotoxic, partial curve, poor fit].
In the case of `CCOc1ccc(NC(=O)Cn2c(=O)n(CCCC(=O)NCCc3ccc(Cl)cc3)c(=O)c3ccccc32)cc1`, the Potency is reported as inconclusive: 10 µM [cytotoxic, partial curve].
With `CC1CCC(NC(=O)C2CCN(c3cnccn3)CC2)CC1` (configuration not stated) the Potency was “inactive”.
For `COc1ccc(-c2[nH]c(-c3ccc(O)cc3)nc2-c2ccccc2)cc1`, the Potency was inconclusive: 31.6 µM [cytotoxic, single point].
With `Cc1nn(C(C)(C)C)c(OC(=O)c2ccc3c(c2)OCO3)c1S(=O)(=O)c1ccccc1` the Potency was active: 15.8 µM.
With `COc1ccc(N2CCN(S(=O)(=O)c3ccc(CC(C)C)cc3)CC2)cc1` the Potency was “inactive”.
In the case of `CCOc1ccc(N(C)S(=O)(=O)c2ccc3c(c2)CCCN3C(C)=O)cc1`, the activity change, negative = cell killing is reported as inconclusive: -30.4% [cytotoxic].
In the case of `CCOC(=O)c1ccc(NC(=O)N2CCc3ccccc32)cc1`, the Potency is reported as inconclusive: 12.6 µM [cytotoxic, partial curve].
For `Cc1ccsc1CN1CCc2nc(Nc3ccccc3)ncc2C1`, the Potency was inconclusive: 10 µM [cytotoxic, partial curve].
With `Brc1ccc(-c2nnc(-c3ccccc3Br)o2)cc1` the Potency was inconclusive: 20 µM [cytotoxic, single point].
In the case of `CCOc1ccc(NC(=O)c2ccc3[nH]c(C)c(C)c3c2)cc1`, the Potency is reported as inconclusive: 15.8 µM [cytotoxic, single point].
For `Cc1ccc(S(=O)(=O)Nc2cccc(-c3cn4cccc(C)c4n3)c2)c(C)c1`, the Potency was inconclusive: 12.6 µM [cytotoxic, partial curve, poor fit].
With `COc1ccc(CC(=O)Nc2sc3c(c2C(=O)Nc2ccccc2)CCCCC3)cc1` the Potency was inconclusive: 10 µM [cytotoxic, partial curve].
In the case of `O=c1c(-c2ccccc2)n[nH]c2ccccc12`, the Potency is reported as inconclusive: 10 µM [cytotoxic, partial curve].
In the case of `O=C(Nc1ccc(F)cc1)c1csc2c1CCCCC2`, the Potency is reported as inconclusive: 15.8 µM [cytotoxic, single point].
With `Cc1ccc(C2Nc3ccccc3-c3nc4ccccc4n32)o1` (configuration not stated) the Potency was “inactive”.
In the case of `COc1ccc(CNc2nc3c(-c4ccccc4)nnn3c3ccccc23)cc1`, the Potency is reported as inconclusive: 10 µM [cytotoxic, partial curve].
For `COc1ccc(CNC(=O)C(c2cccs2)N(C(=O)c2csnn2)C2CC2)cc1` (configuration not stated), the Potency was inconclusive: 25.1 µM [cytotoxic, single point].
In the case of `CCCCN(C)CCCNC(=O)Cn1ncc2c3ccccc3n(Cc3ccccc3)c2c1=O`, the Potency is reported as “inactive”.
With `Cc1c(/C=N\NC(=O)C2COc3ccccc3O2)c2ccccc2n1C` (configuration not stated) the Potency was “inactive”.
For `Cc1ccccc1NC(=O)CSc1nc2nccnc2c(=O)n1CCc1c[nH]c2ccccc12`, the Potency was inconclusive: 0.005 µM [cytotoxic, full curve, poor fit].
In the case of `Cc1ccc(NCc2nc3ccccc3n2C)cc1`, the Potency is reported as inconclusive: 3.16 µM [cytotoxic, partial curve].
With `COc1cc(Nc2nc(SCC(=O)c3ccc(Br)cc3)nc3ccccc23)cc(OC)c1` the Potency was inconclusive: 15.8 µM [cytotoxic, single point].
In the case of `N#Cc1cc2ccccc2nc1SCc1ccccn1`, the Potency is reported as inconclusive: 10 µM [cytotoxic, partial curve].
In the case of `Cc1ccc(Cc2c(C)nc3nc(SCC(=O)NC4CCC(C)CC4)nn3c2C)cc1` (configuration not stated), the Potency is reported as active: 20 µM.
In the case of `COC(=O)c1c(SCC(=O)Nc2cc(OC)cc(OC)c2)[nH]c2ccc(C)cc2c1=O`, the Potency is reported as active: 5.01 µM.
In the case of `Cc1cccc(NC(=O)CSc2nnc3[nH]c(=O)cc(-c4ccccc4)n23)c1C`, the Potency is reported as active: 1.26 µM.
In the case of `Cc1cc(OCCCCCNCCO)ccc1Cl`, the Potency is reported as inconclusive: 31.6 µM [cytotoxic, single point].
In the case of `O=C(CN1C(=O)COc2ccc(Cl)cc21)Nc1ccc(F)cc1`, the Potency is reported as “inactive”.
With `CCOC(=O)c1c(C)[nH]c(C)c1S(=O)(=O)N1CCCC(C(=O)NCc2cccc(C)c2)C1` (configuration not stated) the Potency was “inactive”.
With `Fc1ccc([C@@H]2CCNC[C@H]2COc2ccc3c(c2)OCO3)cc1` the Potency was active: 12.6 µM.
In the case of `CNc1ncnc2c1cnn2-c1ccc(C)c(C)c1`, the Potency is reported as inconclusive: 7.94 µM [cytotoxic, partial curve, poor fit].
For `O=C1CSC(c2cccnc2)N1C1CCCCC1` (configuration not stated), the Potency was “inactive”.
For `CCc1ccc(C(=O)c2cn(CC(=O)Nc3ccc4c(c3)OCO4)c3ccc(OC)cc3c2=O)cc1`, the Potency was “inactive”.
For `O=C(NCCn1ccc2ccccc21)c1ccc(Cl)cc1`, the Potency was “inactive”.
With `Cc1cccc(N2CCN(CCNC(=O)Nc3ccc(Cl)cc3)CC2)c1C` the Potency was inconclusive: 20 µM [cytotoxic, single point].
With `COc1ccccc1OC[C@H](O)CN1CCN(CC(=O)Nc2c(C)cccc2C)CC1` the Potency was “inactive”.
In the case of `CCOC(=O)Cc1nnc2c(Nc3ccc(Cl)cc3)nc3nonc3n12`, the Potency is reported as “inactive”.
With `Oc1ccc(CNc2ccccc2F)c2cccnc12` the Potency was “inactive”.
For `COc1ccc(NC(=O)Cn2c(=O)n(Cc3nc(-c4ccccc4)no3)c(=O)c3ccccc32)cc1Cl`, the Potency was inconclusive: 12.6 µM [cytotoxic, partial curve].
With `CCOC(=O)c1c(C)n(-c2ccccc2)c2ccc(OC(=O)c3cccc(OC)c3OC)cc12` the Potency was “inactive”.
In the case of `Cc1cc(C)n2cc(CSc3nnc(-c4ccccc4)o3)nc2n1`, the Potency is reported as “inactive”.
With `CCCCOc1ccccc1CC1C(=O)Nc2ccc(Br)cc21` (configuration not stated) the Potency was active: 12.6 µM.
With `Nc1nc(-c2ccc3c(c2)OCCO3)cs1` the Potency was inconclusive: 12.6 µM [cytotoxic, partial curve].
In the case of `CCn1c(-c2ccco2)nc2ccccc21`, the Potency is reported as inconclusive: 25.1 µM [cytotoxic, single point].
For `O=C(O)c1ccc2nc(-c3cc4cccc(O)c4oc3=O)[nH]c2c1`, the Potency was inconclusive: 10 µM [cytotoxic, partial curve].
With `COc1ccccc1Cn1cc(C(=O)c2ccc(C)cc2)c(=O)c2cc(C)ccc21` the Potency was inconclusive: 10 µM [cytotoxic, single point].
In the case of `CC(C)C(=O)Nc1ccccc1OCc1cc(=O)n2ccccc2n1`, the Potency is reported as “inactive”.
For `Cc1cccc(NC(=O)c2ccc3snnc3c2)c1C`, the activity change, negative = cell killing was inconclusive: -33% [cytotoxic].
In the case of `N#C[C@@H]1[C@@H]2C(=O)N(c3ccc4c(c3)OCCO4)C(=O)[C@@H]2C2c3ccccc3C=CN21` (some centres not stated), the Potency is reported as “inactive”.
With `COC(=O)c1ccc(-c2nc(-c3cccs3)no2)cc1` the Potency was inconclusive: 10 µM [cytotoxic, partial curve].
In the case of `N#Cc1nc(Cc2cccc3ccccc23)oc1NCCN1CCCCC1`, the Potency is reported as inconclusive: 10 µM [cytotoxic, partial curve].
With `CCCn1nnnc1SCC(=O)NCc1cccs1` the Potency was “inactive”.
With `NC(=O)C1CCN(C(=O)c2cccc(NC(=O)c3nsc4ccccc34)c2)CC1` the Potency was inconclusive: 6.31 µM [cytotoxic, partial curve].
In the case of `COc1ccccc1CNC(=O)CCn1nc(C)c2c(C)n(-c3ccccc3)nc2c1=O`, the Potency is reported as “inactive”.
In the case of `Cn1c(=O)n(C)c2cc(C(=O)Nc3ccc4c(c3)OCO4)ccc21`, the Potency is reported as inconclusive: 12.6 µM [cytotoxic, partial curve].
With `COC(=O)C/C=C1\c2ccccc2C(OC)C1C` (configuration not stated) the activity change, negative = cell killing was inactive: 10.4% [at 9.22 µM].
For `CCCCN(CC)C(=O)CSc1nc2n[nH]c(C)c2c(=N)n1-c1cccc(OC)c1`, the Potency was inconclusive: 12.6 µM [cytotoxic, single point].
In the case of `CCCN(CCC)CC(O)Cn1cc(/C=C/C(=O)c2ccc(C)cc2)c2ccccc21` (configuration not stated), the Potency is reported as active: 12.6 µM.
In the case of `CC(C(=O)NCc1ccc(Cl)cc1)n1ccc2cc(S(=O)(=O)N3CCCCCC3)ccc21` (configuration not stated), the Potency is reported as inconclusive: 0.01 µM [cytotoxic, full curve, poor fit].
With `COc1ccc(OC)c(CNC(=O)c2c3c(nc4ccccc24)C(=O)N(C2CCCCC2)C3)c1` the Potency was inconclusive: 3.98 µM [cytotoxic, full curve, poor fit].
For `CCOC(=O)c1c(C)[nH]c(C)c1S(=O)(=O)N1CCC(C(=O)N2CCN(c3ccccc3)CC2)CC1`, the Potency was inconclusive: 0.199 µM [cytotoxic, full curve, poor fit].
In the case of `COc1cccc(-n2cc(C(=O)OCc3ccc(F)c(F)c3)c3ccccc3c2=O)c1`, the Potency is reported as inconclusive: 0.158 µM [cytotoxic, full curve, poor fit].
For `COc1ccccc1CNC(=O)CCn1c(=O)c2ccccc2n(CC(=O)Nc2ccc(Br)cc2F)c1=O`, the Potency was inconclusive: 15.8 µM [cytotoxic, single point].
In the case of `Cc1ccc(O)c(NC(=O)c2noc3c2CCCC3)c1`, the Potency is reported as inconclusive: 12.6 µM [cytotoxic, single point].
In the case of `CN(C)CCNC(=O)c1ccc2c(c1)N(Cc1ccccc1)C(=O)c1ccccc1S2(=O)=O`, the Potency is reported as inconclusive: 1 µM [cytotoxic, partial curve].
With `C=C1C(=O)O[C@@H]2[C@H]3O[C@]3(C)CCC=C(C)CC[C@@H]12` the Potency was active: 12.6 µM.
With `Cc1ccc2nc(-c3cccc(NC(=O)c4ccc(Br)o4)c3)oc2c1` the Potency was inconclusive: 31.6 µM [cytotoxic, single point].
For `COc1ccccc1-c1ccc(NC2CCCCC2)nn1`, the Potency was inconclusive: 10 µM [cytotoxic, partial curve].
In the case of `CCCCC(=O)OCc1cc(=O)n2nc(C3CCCCC3)sc2n1`, the Potency is reported as “inactive”.
With `Cc1ccc(NC(=O)N2CCc3cc(S(=O)(=O)N4CCC(C)CC4)ccc32)cc1F` the Potency was inconclusive: 3.98 µM [cytotoxic, single point].
With `Cc1ccc(CNC(=O)Nc2cccs2)cc1` the Potency was inconclusive: 15.8 µM [cytotoxic, single point].
